# PubChem BioAssay AID1347073 (National Center for Advancing Translational Sciences (NCATS), 2019)
# Among all 45,000 compounds or so, about 200 (0.44%) were called active. Another 7% or so got no clear call; they are omitted. Calls come from the whole dose curve; as a rule, active = well fitted activation curve with a large enough effect; inconclusive = small, poorly fitted or top-dose-only effect; inactive = no such curve, though single readings can be large or run the other way. The list shows a part of the results.
# Test: qHTS of TDP-43 Inhibitors: NCGC Sytravon Library Screen; note: 0% is about no effect; nearly all actives have a fitted effect of over 55% in size
# Conditions: yeast TDP-43 toxicity rescue, BacTiter-Glo growth, 24 h; series mostly up to 46.1 µM; growth rescue (activation): at the top concentration
# In short: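 TDP-43-expressing yeast, pregrown in raffinose, seeded at OD600 0.02 in galactose medium with compound for 24 hr at 30 deg C. Growth read by BacTiter-Glo luminescence, so rescue of toxicity appears as activation.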
row,Structure (SMILES),growth rescue (activation)
1,CCOc1cc(NS(=O)(=O)c2ccc(NC(C)=O)cc2)c(OCC)cc1NC(=O)c1cccs1,inactive: 15.9%
2,O=C(CSCCO)Nc1cccc([N+](=O)[O-])c1,inactive: -2.59%
3,Cc1nnc(NC(=O)C2CCN(C(=O)c3ccco3)CC2)s1,inactive: -3.16%
4,O=C(O)c1cccc(S(=O)(=O)N(Cc2ccccc2)c2cccc(C(F)(F)F)c2)c1,inactive: -16.8%
5,O=C(CC1SC(=NCC2CCCO2)NC1=O)Nc1cccc2ccccc12 (configuration not stated),inactive: -3.92%
6,Cc1cccn2c(=O)c3cc(C(=O)N4CCN(C(=O)c5ccco5)CC4)n(C)c3nc12,inactive: 19.4%
7,Cc1cccn2c(=O)c(/C=C(\C#N)C(N)=O)c(N3CCN(Cc4ccc5c(c4)OCO5)CC3)nc12,inactive: -23.8%
8,C=CCOc1ccc(C=Nc2ccc(C)c(Cl)c2)c(O)c1,inactive: 0.811%
9,CC1(C)CC(=O)C(C=NCCN2CCN(CC(=O)Nc3ccc(Cl)cc3)CC2)=C(O)C1,inactive: 5.71%
10,CCCCNC(=S)N1CCN(CC)CC1,inactive: 2.35%
11,COc1ccc(C)cc1NC(=O)C(Sc1nnc(Nc2cc(C)ccc2OC)s1)c1ccccc1 (configuration not stated),inactive: 31.8%
12,COC(=O)[C@H](C)NC(=O)c1cc2c(cn1)[nH]c1ccccc12,inactive: -22.4%
13,Cc1noc(C)c1C(=O)N1CCC1(C)C(=O)NS(=O)(=O)c1ccc(Cl)cc1 (configuration not stated),inactive: -8.92%
14,O=C(Nc1ccc(N2CCN(C(=O)c3cccs3)CC2)cc1)c1cccc(F)c1,inactive: -0.0565%
15,c1cc(-c2ccc(N3CCOCC3)cc2)n2ccnc2c1,inactive: -10.7%
16,Cc1cc(F)ccc1Nc1nc2ccccc2n2nnnc12,inactive: 10.8%
17,CC(=O)N1CCN(c2ccc(NS(=O)(=O)c3ccc(C)cc3)cc2)CC1,inactive: 18.8%
18,COc1ccc(C(=O)NNC(=O)c2ccc(S(=O)(=O)N3CCOCC3)cc2)cc1,inactive: 18.9%
19,COc1ccc(C(C(=O)NC2CCCCC2)N(C(=O)c2snc(C(N)=O)c2N)c2ccc(OC)cc2OC)cc1 (configuration not stated),inactive: 5.25%
20,CC(=O)Oc1ccc(NC(=O)Cc2ccccc2)c(C(=O)O)c1,inactive: -6.56%
21,COc1ccc(-n2cnnc2SCC(=O)Nc2cccc([N+](=O)[O-])c2)cc1,inactive: 3.71%
22,CCC(C(=O)Nc1ccc(N2CCOCC2)c(S(=O)(=O)Nc2ccccc2OC)c1)c1ccccc1 (configuration not stated),inactive: 3.92%
23,COc1ccc(N2CCN(C(=O)c3c(-c4c(F)cccc4Cl)noc3C)CC2)cc1,inactive: 13.4%
24,COc1cccc(/C=N/Nc2nc(Nc3ccc([N+](=O)[O-])cc3)nc(N3CCCC3)n2)c1O,inactive: 24.2%
25,Cc1cccc(S(=O)(=O)NC(=O)C2(C)CCN2C(=O)Cc2ccc(-c3ccccc3)cc2)c1 (configuration not stated),inactive: 17.2%
26,CCC(C)(C)NC(=O)CN(C(=O)CCC(=O)Nc1nccs1)c1ccc2c(c1)OCO2,inactive: -3.31%
27,NC(=O)COC(=O)CC1CC2CCC1C2 (configuration not stated),inactive: 3.41%
